{"source": "PubChem BioAssay AID602332", "about": "(National Center for Advancing Translational Sciences (NCATS), 2012)", "note": "Among all 420,000 compounds or so, about 75 (0.02%) were called active. The shares of active, inactive and inconclusive entries below differ from those in the screen. The call rests on the fitted dose curve; in most records, active means well fitted activation curve with a large enough effect; inconclusive means small, poorly fitted or top-dose-only effect; inactive means no such curve, though single readings can be large or run the other way. Potencies beside an inconclusive call are fits to weak or partial responses and may not hold up. Potency means the concentration at half of the fitted maximal effect; tags describe the fitted curve by direction and shape."}
{"assay": "qHTS for Inducers of the Endoplasmic Reticulum Stress Response (ERSR) in Human Glioma: qHTS; further: nearly all actives have a fitted effect of over 35% in size; on activation: % of control where 0% means no effect", "details": "U87-MG GRP78 promoter luciferase reporter, 16 h; activation: hits give high values", "summary_of_the_method": "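Stably transfected U87-MG human glioma cells carrying a GRP78-based luminescent sensor were seeded at 1000 cells/well, pin-dosed with compounds and incubated 16 h. Luciferase reagent was then added, and end-point luminescence was read after 10 min at room temperature.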"}
{"smiles": "COC(=O)c1ccccc1SC(CC(=O)c1ccccc1)c1ccc(F)cc1", "note": "(centres undefined)", "Potency": "inconclusive: 44.7 µM [activator, single point]"}
{"smiles": "Cc1ccc(Cl)cc1-n1ncc2c(NCc3ccc(F)cc3)ncnc21", "Potency": "inconclusive: 50.1 µM [activator, single point]"}
{"smiles": "O=C(Oc1ccc(Cl)c2cccnc12)c1ccco1", "Potency": "inconclusive: 44.7 µM [activator, single point]"}
{"smiles": "COc1ccc(-c2cc3ccc(O)c(CN4CCCC(C)C4)c3oc2=O)cc1", "note": "(centres undefined)", "activation": "inactive: -2.41%"}
{"smiles": "O=C(NCC1CCCO1)c1ccc([N+](=O)[O-])o1", "note": "(centres undefined)", "Potency": "inconclusive: 44.7 µM [activator, partial curve, poor fit]"}
{"smiles": "CC(=O)c1ccc(-c2ccc3c4c(ccc3c2)OC(CNC(=O)[C@@H]2CCCN2C(C)=O)C4)s1", "note": "(some centres undefined)", "activation": "inactive: 3.34%"}
{"smiles": "CCOc1cc(C2Nc3ccccc3C(=O)N2Cc2ccco2)ccc1OCc1ccccc1Cl", "note": "(centres undefined)", "Potency": "inconclusive: 50.1 µM [activator, single point]"}
{"smiles": "O=C(N/N=C/c1ccccn1)c1cccc([N+](=O)[O-])c1", "Potency": "inconclusive: 50.1 µM [activator, single point]"}
{"smiles": "CC1Nc2ncnc(N3CCN(c4ccccc4)CC3)c2N(Cc2ccc(Cl)cc2)C1=O", "note": "(centres undefined)", "activation": "inactive: -1.95%"}
{"smiles": "CC(C)OC(=O)C(=O)NNc1ccccc1", "activation": "inactive: -3.07%"}
{"smiles": "COc1ccc(C2=NN(C(=O)c3cccs3)C(c3ccccc3O)C2)cc1", "note": "(centres undefined)", "Potency": "inconclusive: 44.7 µM [activator, partial curve, poor fit]"}
{"smiles": "CCCCCCSc1nc(O)c(C2OC(=O)c3c2ccc(OC)c3OC)c(=O)n1-c1ccccc1", "note": "(centres undefined)", "Potency": "inconclusive: 22.4 µM [activator, single point]"}
{"smiles": "C=CCn1cc(/C=N/Nc2nc3ccccc3[nH]2)c2ccccc21", "Potency": "inconclusive: 15.8 µM [activator, single point]"}
{"smiles": "Cc1ccc(SCc2ccc(C(=O)Nc3nccs3)o2)cc1", "Potency": "inconclusive: 50.1 µM [activator, partial curve, poor fit]"}
{"smiles": "C/C(=N\\NC(=O)COc1cccc(C)c1)c1ccc2ccccc2c1O", "Potency": "inconclusive: 28.2 µM [activator, single point]"}
{"smiles": "O=S(=O)(c1ccccc1)N1CCN(C(=S)NCCCN2CCOCC2)CC1", "activation": "inactive: -4.29%"}
{"smiles": "CC(=O)Oc1c(Cl)cc(Cl)cc1/C=C/c1ccc2ccccc2n1", "Potency": "inconclusive: 7.94 µM [activator, partial curve]"}
{"smiles": "CC(C)c1nc2cc3ccccc3cc2[nH]1", "Potency": "inconclusive: 11.2 µM [activator, partial curve, poor fit]"}
{"smiles": "COc1ccccc1/C=C/C(=O)Nc1cccc(C(C)=O)c1", "Potency": "inconclusive: 8.91 µM [activator, full curve, poor fit]"}
{"smiles": "CCn1ccnc1CNCc1cn(-c2cc(C)ccc2C)nc1-c1ccccc1", "activation": "inactive: -0.778%"}
{"smiles": "CNC(=O)c1cc2cc(OC)ccc2oc1=N", "Potency": "inconclusive: 15.8 µM [activator, full curve, poor fit]"}
{"smiles": "Cc1cccc(/C=C2/S/C(=N/N=C3\\CC4CCC3(C)C4(C)C)NC2=O)c1", "note": "(centres undefined)", "Potency": "inconclusive: 44.7 µM [activator, partial curve, poor fit]"}
{"smiles": "CCCCCn1c(=S)[nH]c2ncccc2c1=O", "activation": "inactive: -3.69%"}
{"smiles": "S=c1[nH]nc(-c2ccc3ccccc3n2)n1-c1ccc2c(c1)OCCO2", "activation": "inactive: -2.26%"}
{"smiles": "Cc1cc(C)c(NC(=S)NC(CO)(CO)CO)c(C)c1", "activation": "inactive: -4.38%"}
{"smiles": "CC(C)OCCCN1C(=O)c2[nH]nc(-c3ccccc3O)c2C1c1cccc(OCc2ccccc2)c1", "note": "(centres undefined)", "Potency": "inconclusive: 28.2 µM [activator, full curve, poor fit]"}
{"smiles": "COc1ccc(C(c2c(C)[nH]n(C(N)=S)c2=O)C(C#N)C#N)cc1", "note": "(centres undefined)", "Potency": "inconclusive: 28.2 µM [activator, single point]"}
{"smiles": "O=C(NCC1(N2CCOCC2)CCCCC1)c1cnn(-c2nccc(-c3cccs3)n2)c1C1CC1", "activation": "inactive: 2.33%"}
{"smiles": "CSc1ccc(Cn2c(C)c(C(=O)NCc3ccc4c(c3)OCO4)sc2=O)cc1", "activation": "inactive: 0.816%"}
{"smiles": "Cc1ccc(S(=O)(=O)N2CCN(CC(=O)N/N=C\\C(Cl)=C\\c3ccccc3)CC2)cc1", "activation": "inactive: 0.0725%"}
{"smiles": "COC(=O)c1cc(=O)n(Cc2cccs2)c(=Nc2ccc(F)cc2)s1", "Potency": "inconclusive: 28.2 µM [activator, single point]"}
{"smiles": "O[C@@H]1COC2[C@@H](O)CO[C@@H]21", "note": "(some centres undefined)", "activation": "inactive: 3.25%"}
{"smiles": "COc1ccc(-n2c(SCC(=O)N3CCCc4ccccc43)nc3c([nH]c4ccccc43)c2=O)cc1", "activation": "inactive: -1.55%"}
{"smiles": "Cc1ccc(S(=O)(=O)NC(C(=O)Oc2ccc3ccc(=O)oc3c2)c2ccccc2)cc1", "note": "(centres undefined)", "activation": "inactive: -2.74%"}
{"smiles": "CC1=C(C#N)C(=O)OC(C)(C)C1", "activation": "inactive: 2.26%"}
{"smiles": "Cc1cccc2c1-c1sc(C(=O)Nc3cccnc3)cc1CO2", "Potency": "inconclusive: 28.2 µM [activator, single point]"}
{"smiles": "CCCCN(CCCC)CC(O)COc1ccccc1C(=O)Nc1ccccc1", "note": "(centres undefined)", "activation": "inactive: -2.32%"}
{"smiles": "COc1ccc(-c2nc3cc([N+](=O)[O-])ccc3o2)cc1", "Potency": "inconclusive: 28.2 µM [activator, single point]"}
{"smiles": "O=C(CC(c1ccccc1)c1ccccc1)NCC1CCCO1", "note": "(centres undefined)", "activation": "inactive: -2.23%"}
{"smiles": "Cn1c(COc2ccc3ccccc3c2)nnc1SCC(=O)OC1CCCCC1", "Potency": "inconclusive: 5.01 µM [activator, full curve, poor fit]"}
{"smiles": "Oc1ccc(-c2nccc(-c3ccccn3)n2)cc1", "Potency": "inconclusive: 35.5 µM [activator, partial curve, poor fit]"}
{"smiles": "Cc1cc(NC(=O)COC(=O)COc2ccc3c4c(c(=O)oc3c2)CCC4)no1", "Potency": "inconclusive: 44.7 µM [activator, partial curve, poor fit]"}
{"smiles": "CO/N=C/c1ccc(Oc2ccc(C)cc2)nc1", "Potency": "inconclusive: 25.1 µM [activator, partial curve, poor fit]"}
{"smiles": "Cc1cc(C(=O)COC(=O)c2ccc(O)cc2)c(C)n1CC(F)(F)F", "Potency": "inconclusive: 12.6 µM [activator, partial curve, poor fit]"}
